PubChem BioAssay AID488969 (Vanderbilt High Throughput Screening Facility, 2010)
Over roughly 110,000 compounds, “z-score” has its median near -0.1; the highest 2% begin near 2. This is one part of the list.

molecular target: Metabotropic glutamate receptor 8 (Rattus norvegicus) (UniProt P70579); experiment: mGluR8 Gi/Go-coupled signaling modulation – cell-based, rat, thallium flux, HTS, primary screen (AID 488969); conditions: HEK293 rat mGluR8, GIRK (G protein-gated inwardly rectifying potassium channel) thallium flux, FluoZin2; at 10 µM; stronger effect = higher value; submaximal glutamate (EC20) added with thallium
Chain of UniProt P70579 (P70579 whole entry, looked up): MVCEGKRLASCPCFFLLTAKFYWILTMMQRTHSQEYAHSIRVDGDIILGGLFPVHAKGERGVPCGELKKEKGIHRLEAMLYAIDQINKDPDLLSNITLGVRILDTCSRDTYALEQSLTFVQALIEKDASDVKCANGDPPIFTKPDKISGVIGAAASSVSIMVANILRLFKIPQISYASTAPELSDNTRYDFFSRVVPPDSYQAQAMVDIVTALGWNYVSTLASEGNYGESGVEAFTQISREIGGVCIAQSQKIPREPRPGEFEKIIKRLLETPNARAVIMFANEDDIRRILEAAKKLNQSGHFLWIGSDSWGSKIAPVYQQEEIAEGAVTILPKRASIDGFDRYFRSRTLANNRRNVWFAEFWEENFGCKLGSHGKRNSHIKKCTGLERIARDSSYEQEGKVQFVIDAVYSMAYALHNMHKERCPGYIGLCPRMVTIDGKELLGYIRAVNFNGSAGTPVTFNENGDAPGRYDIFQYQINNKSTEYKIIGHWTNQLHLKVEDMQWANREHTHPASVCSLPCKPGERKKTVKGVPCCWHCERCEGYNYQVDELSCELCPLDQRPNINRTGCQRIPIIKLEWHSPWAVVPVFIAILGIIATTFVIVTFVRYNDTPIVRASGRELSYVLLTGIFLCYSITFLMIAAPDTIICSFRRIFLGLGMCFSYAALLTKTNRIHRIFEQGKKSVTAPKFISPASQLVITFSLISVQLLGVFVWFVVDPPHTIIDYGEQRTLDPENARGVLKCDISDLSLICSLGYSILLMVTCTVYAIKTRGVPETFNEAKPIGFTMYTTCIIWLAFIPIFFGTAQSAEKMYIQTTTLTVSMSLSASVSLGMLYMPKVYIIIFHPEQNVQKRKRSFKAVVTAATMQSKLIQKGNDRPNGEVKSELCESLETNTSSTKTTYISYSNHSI

SMILES	z-score
O=c1cc(C(Cl)(Cl)Cl)oc2c1ccc1ccccc12	-0.27
CC1CN(S(=O)(=O)c2ccc(NC(=O)CCCN3C(=O)c4ccccc4C3=O)cc2)CC(C)O1 (stereo not drawn)	-0.131
CCOC(=O)C(NC=O)(NC(C)(C)C)C(=O)OCC	0.0436
O=c1cc(CSc2nnc(-c3ccco3)o2)c2ccccc2[nH]1	-0.31
CCOC(=O)C1=C(C)NC(=O)NC1	-0.302
O=C(CCCO)N/N=C/c1ccccc1[N+](=O)[O-]	0.16
O=C(O)CCC(=O)OCC1CCCCC1	-0.0493
Cc1cc(C)c(NC(=O)c2oc3ccccc3c2COc2ccccc2)c(C)c1	-0.0974
Cc1cccc(NC(=O)NCC(F)(F)F)n1	-0.0151
CC(C)COc1ccc(C2NC(=O)NC2=O)cc1 (stereo not drawn)	-0.105
O=C(CSc1nnc(Cc2ccccc2)o1)NC1CCCCC1	0.0927
CCCC(C(=O)O)N1C(=O)/C(=C/c2cccn2C)SC1=S (stereo not drawn)	-0.401
CSc1nccc(N2CCN(c3ccc(F)cc3)CC2)n1	-0.0817
CCN1C(=O)CC(N2CCC(Cc3ccccc3)CC2)C1=O (stereo not drawn)	-0.239
COc1ccc2[nH]c(=O)c(CNc3ccccc3)cc2c1	-0.111
CN(C)S(=O)(=O)c1ccc(N2CCCC2)c(C(=O)Nc2ccc(N3CCOCC3)cc2)c1	0.271
O=C(CSc1ncn[nH]1)NCCOc1ccccc1	-0.157

SMILES	z-score
Cc1ccc(S(=O)(=O)N2CCN(CC(=O)N/N=C/c3ccc(C)o3)CC2)cc1	-0.141
COC(=O)c1cccc(C(=O)Nc2ccc(F)cc2)n1	-0.32
O=S(=O)(c1ccc(F)cc1)N1CCCC(CO)C1 (stereo not drawn)	-0.0413
CCCCc1c(C)nc2ccc(C(=O)OCC)cc2c1Cl	-0.185
O=C(O)c1ccnc(C(=O)O)c1	0.295
C[N+](C)(C)CCCC(=O)c1ccc2c(c1)OCO2	-0.215
COc1ccc(S(=O)(=O)N2CCCCC2)cc1NC(=O)CSc1ncnc2ccccc12	-1.21
Cc1ccc2cc(C(c3nnnn3C(C)(C)C)N3CCCCCC3)c(=O)[nH]c2c1 (stereo not drawn)	-1.23
COC(=O)N/N=C/c1cc([N+](=O)[O-])cc(Br)c1O	-0.298
Clc1ccc(Sc2ccc(/C=N/n3cnnc3)o2)cc1	-0.0826
Cc1ccc(C)c(Oc2nnnn2-c2ccccc2)c1	-1.56
Cc1occc1C(=O)NNC(=S)Nc1ccccc1	-0.355
Cc1ccc(-c2noc(CSc3nnc(Cc4ccccc4)n3-c3ccc(Cl)cc3)n2)cc1	-0.159
CCO/N=C(\C)c1c(O)c2ccccc2n(C)c1=O	-0.246
NC(=O)Cn1c(=O)n(CCCC(=O)NC2CCN(Cc3ccccc3)CC2)c(=O)c2ccccc21	-0.00606
O=C1c2ccccc2CC1Sc1nnc(-c2ccncc2)o1 (stereo not drawn)	-1.32
